Experimental data taken from the supplement of paper PMC3334620.
Over roughly 33,000 sequences, “E-score (-0.5 to 0.5)” has its median near -0.017; the highest 2% begin near 0.3. This is one part of the list.

These sequences were tested against T1, Sut1 (UniProt P53032) (assay: PBM E-score (8-mer binding enrichment) (E-score (-0.5 to 0.5)); higher = stronger / more preferred TF binding; most listed sequences are background and not binding sites). Conditions: protein concentration: 200 nM; construct: GST-full length.
T1 sequence: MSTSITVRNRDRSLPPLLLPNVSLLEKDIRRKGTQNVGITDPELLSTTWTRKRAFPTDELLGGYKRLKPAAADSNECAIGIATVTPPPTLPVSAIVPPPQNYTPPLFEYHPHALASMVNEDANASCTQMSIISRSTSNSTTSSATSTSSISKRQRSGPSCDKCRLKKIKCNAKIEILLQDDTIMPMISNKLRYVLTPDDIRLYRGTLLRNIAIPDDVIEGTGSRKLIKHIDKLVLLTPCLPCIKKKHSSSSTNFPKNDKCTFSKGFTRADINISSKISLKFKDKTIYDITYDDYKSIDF
Summary of the method: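 Full-length yeast transcription factors or their DNA-binding domains, GST-tagged and expressed with PURExpress, were applied at about 100-200 nM to universal all-10-mer Agilent arrays. These arrays had been made double-stranded by primer extension on fresh or once-stripped slides. Detection used fluorescent anti-GST, normalisation used masliner, and E-scores for ungapped eight-base words pooled with reverse complements came from the Universal PBM Analysis Suite.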

Sequence	PBM E-score
ATCCGGGA	0.0768
ACGGTAAC	0.21
AAGGTCCC	-0.236
CGGCGCTA	-0.0937
ACCAAGGC	-0.175
CGCAAACG	-0.00322
CAAACCGG	0.125
GCAGATGA	0.00901
CCTATGTA	-0.187
GTATAGAC	0.0514
AGCAGGTA	-0.103
CGATGAGA	0.0167
AGGGTAAC	-0.186
CCTGCAAC	-0.191
ATACAGGC	0.00692
ATTAAATA	0.315
AGATGTAC	-0.0447
ATTATCAG	-0.0533
GTCTGTGA	-0.233
AGTACTGC	-0.161
ATGTGCTG	-0.0244
CAAGAAAG	0.181
CTTGTATA	0.166
CCACCCCC	-0.226
TCTAACAA	0.177

Sequence	PBM E-score
TCCCGGCA	-0.0887
CCAATCAC	-0.127
AGGAACCA	-0.0989
GGCCCGTA	-0.129
ACTGAATC	-0.114
GAGTCGTA	0.0883
CCTTTGCG	-0.119
AATTCTAT	0.128
GTTGTGTA	0.0519
AGGAATCA	0.12
AGCCCTGA	-0.191
CACTTCCC	0.0121
ATTTTGGA	0.229
AATTGTAT	0.114
TGTCAAAA	0.189
ACAGTGTC	-0.114
CTGAAATC	0.0241
CTCTAGGA	-0.277
AAAAAAGG	0.225
CTTCACCA	-0.163
AGGAAATA	0.184
ACACTCAG	-0.253
CCGGCCGC	-0.0166
CCGTACGA	0.118
AGTCATGC	-0.253

Sequence	PBM E-score
CCCACGTA	-0.0462
CAGGACAA	0.183
GAAAATCA	0.159
GATCCGGA	0.324
ATACGGCG	0.0563
AATTTCGC	0.136
ATAGCATC	0.0409
ATATTTAG	0.166
GCGGTCGA	0.0161
CGGGTATC	-0.222
TGGGGCAA	-0.261
AGGAATAC	-3e-05
CATAAAGC	-0.104
GGGTTATA	0.0268
ATACACAG	0.116
CATTCCAA	-0.035
CGCCAGAA	-0.038
AAGCTCCA	-0.0213
ACCGGCCC	-0.177
CTAGAAGA	0.0578
TTAGGAAA	0.0746
CCAGGCGA	-0.308
ATCAGCTG	-0.0324
GATCGTTA	0.0116
GATGACGA	-0.0657

Sequence	PBM E-score
AGGACACA	0.0491
CACCAGAA	-0.185
TCCTAAAA	0.00189
CTTCCGAA	0.233
GCATCGAC	-0.167
TAACCCCA	-0.072
CGGCCACC	-0.0332
CCAATGAC	-0.0884
CATACGCG	-0.172
GCCATGAA	0.0219
GGAGACGA	0.0626
CCCTTGCA	-0.258
GTCAGACA	-0.111
ATGCGGCC	-0.208
ACACGGCT	-0.139
ATACCAAC	0.0245
AATTGCTG	0.0942
CCGCTGGA	-0.0401
CGTAATAC	0.129
ACCCCGTG	0.19
ATTATTCG	0.277
CGAGCGAG	0.196
GTAAGGAA	-0.0925
GTAGCATA	-0.00127
TTAAAAAA	0.282

Sequence	PBM E-score
CACACTAC	-0.171
AATTTAAC	0.255
CATGTGCC	-0.156
CCGTATCC	0.0473
ATCCACGG	0.102
GTCCCGTA	-0.143
CCCATGGC	-0.293
GTCAAACA	-0.0968
AATTTGCA	0.126
GCGTAACA	-0.0695
ATAAACAA	0.275
AGTTTGTG	0.0471
CTCATGAA	-0.0491
AGGGATAT	-0.0535
CTCCTTCA	-0.116
CAGGGGCA	-0.253
GTACATTA	0.215
AAGGATTA	0.0709
AGGTTGAC	-0.0882
ATCAGACA	-0.0432
AACTTGCG	-0.0193
CTAGTTAC	-0.0636
CATCAGGG	-0.149
AGCAACCG	-0.0232
CCGATCCA	-0.0263

Sequence	PBM E-score
AATCGGCC	-0.109
ACCCTCCA	-0.279
GGTGATTA	0.0889
AACGGGCT	-0.0517
CAGGTGAG	-0.208
GGCAATGA	-0.00098
GAGTCGCA	-0.207
AAAGTTTC	0.161
CTGACTTC	-0.061
GGCCCCAC	-0.306
CAAGTACA	-0.05
CACGCTGG	-0.177
ACATATTC	0.182
CAGACGGA	0.131
ACTAGCAT	-0.274
AAACCTGT	-0.00648
AGGCGTAA	0.0295
AAGGCATG	-0.119
CGCATACC	-0.118
CCAACGTC	-0.231
CCTTCTCC	0.0483
AACGAAGC	0.0071
CGACACGA	-0.0752
CTCAATTA	0.0777
CTAATAAG	0.0561

Sequence	PBM E-score
ACCTGCAT	-0.0248
AGGCAGTC	-0.102
GGTCCGCA	0.241
ATCCTCAT	-0.0846
AGTGTTAG	0.0669
TCAGGCCA	-0.26
CCACGGCA	-0.014
AGTCATTG	-0.029
ATACCTTA	0.146
TAAGGCAA	-0.0343
AGATACCA	0.0776
CCATGTAA	-0.0163
AGCGGAAA	0.244
ACTCTCAT	0.0885
ACAGGGAG	-0.199
GGCTGTCA	-0.294
AGTGCAGG	-0.18
CCGAACTC	0.172
ACTGAAGA	0.146
AGCCGTTG	-0.0555
AGGGGGAG	-0.31
CCGTTGCC	-0.169
CCCGGCGC	-0.178
ATCTGAAT	0.109
ACCAATTG	-0.0713

Sequence	PBM E-score
ATCTGCGG	-0.143
CTCACAGC	-0.051
CACCGAAA	0.137
ATCCCCAG	-0.25
ACGCCTCC	-0.0188
AGAACCGG	0.127
AAATCCTA	0.175
ACCCGACG	-0.111
GCGCCTAA	0.0199
ACTAACCA	0.204
CATAGGAG	-0.164
AGAGATTA	-0.0385
AATCTTAC	0.183
AGTCCATA	0.034
CGGCAGCC	-0.0872
ACTCGGCT	-0.079
GATCCGAC	-0.0112
CATGGTGG	-0.223
GCAGACCC	-0.169
CGTATTCC	0.171
AAGCACAT	0.112
CTTTCCAA	-0.0248
AGACGTCA	-0.166
AACTCGGA	0.341
AGCTTGCA	-0.046

Sequence	PBM E-score
AGTCTTAC	-0.0131
ACGTCCGA	0.149
CACGAGCC	-0.162
AAGTTTGA	0.2
AATCGTGT	0.0751
AAGATGTC	0.0299
AACGCACG	0.108
TCACACAA	-0.13
GAATCTGA	-0.0564
ACAATTTA	0.217
GGCAGCAA	-0.129
AATCCCGG	0.12
GCGAACGA	0.0664
CTTCTGCA	-0.0521
GGCCGGCC	-0.0421
ACACCCTC	-0.249
ATGCGACA	-0.162
CTCCAGGC	-0.26
CTTGCGGC	-0.136
CCCTATCA	-0.141
ACCTATGA	-0.184
ACAATTGT	0.0951
AACCACTC	-0.0747
AGTAACCA	0.0894
AAGCATCT	-0.0157

Sequence	PBM E-score
CGAGCGAC	-0.00351
AACTAACA	0.0858
GTCAGTAA	0.0392
AATATCCG	0.233
AGAGCTAT	-0.27
ACCGGAAG	0.29
GTCTACAC	-0.0486
CCTACTGC	-0.18
CATCCCTA	-0.147
AGGTTCCC	-0.257
CAGGACGA	-0.111
CGCTCTAG	-0.249
AAACTGCA	-0.0628
ACGAGAAT	0.056
CAGTATTA	0.0764
CTATCCCC	-0.201
CGCACTAG	-0.0832
AATTGACC	0.0635
GGGACGCA	-0.381
AACATCCC	0.0031
CAACCTAC	0.0861
AAGTAGGG	-0.117
AGGGCCGG	-0.0966
AACTGGGC	-0.174
AACTTTTC	0.127

Sequence	PBM E-score
GTGCAGCA	-0.231
CATGGGCA	-0.145
AATTCACG	0.046
CCCGTGGC	-0.283
AATCCAAA	0.246
GCCACCTA	-0.214
TAGGACAA	-0.0386
GCAAGTGA	-0.122
AGGTTACA	0.0303
GCTGTTCA	0.0353
GAATACAC	0.0877
ACAGAATA	0.137
GTCTATCA	0.101
CCGGGGAC	-0.122
ACATGATA	0.212
ACAGGAAA	0.145
ACCTCGAA	0.0255
ATTAGCCA	-0.0809
ACATTACC	0.0569
ATTTAAGA	0.142
ACGTAGCC	-0.309
CCCCTCAA	-0.189
AAGGTGTG	-0.0224
GGGCTTAC	-0.129
ACAGGGCT	-0.334

Sequence	PBM E-score
CTACGTCC	-0.15
GTACCCCA	-0.0663
TCCCAAGA	-0.153
GTAATGCA	-0.0341
ACCTACAC	-0.185
GTGATGAA	0.0687
GACCGGCA	-0.308
GTAACGCA	0.021
CCAGAGTC	-0.00662
CCAGCTAA	-0.154
ATGTCTTA	-0.0624
ATTCAGTA	0.175
ACACGGGT	-0.0709
CACATGAC	-0.137
AATAATGT	0.235
CGAACGGA	0.247
ACAAACAT	0.208
AAAAGCTG	-0.15
ATAGTGAA	0.163
CGGACAAC	0.309
CCCGAGCA	-0.101
GAGTACAA	0.171
CATACCCG	-0.11
GACATGGC	-0.144
ACACGCCC	-0.0573

Sequence	PBM E-score
GGAATCAA	0.0788
CCAAGTGC	-0.0206
GACCCGGA	0.204
AACGCGTA	-0.0498
AGAACACG	0.186
ACGCCAAC	-0.0818
ACCTTGCC	-0.0123
TGCTGGAA	-0.0478
GGCCGAGA	0.0849
GTTACTGA	0.148
CAACACAG	-0.037
GGCGTTGA	-0.134
CGGTTGAG	0.0963
GGTACTGA	-0.146
ATGTGCGG	-0.217
ACTATTCC	0.168
GAGTCGCC	-0.166
GGCACTAC	-0.283
CGATTTAG	0.073
GTTCGTTA	0.0988
GCGCTAAA	0.0525
AAGTCGGT	0.0852
CCCTTGGC	-0.202
GTCTGGGA	-0.296
AAATAGAA	0.173

Sequence	PBM E-score
CGAGTAAA	0.125
GGGTAACC	-0.219
AAATATTC	0.207
CTAGGCTA	-0.0601
AGCGGCAC	-0.257
AATCGTAT	0.16
CATGCAGA	-0.15
AGGTGTAG	-0.105
GATATTAC	0.297
AGCGGTGC	-0.0174
CGCGTTTC	-0.0399
CTATACAC	-0.0238
CCTGCCAA	-0.192
AGAGGACG	0.0629
CTACTTGC	-0.12
TATCTCCA	0.191
AGTGCTAG	-0.0637
ACGCTTGC	-0.218
AAAGACGC	0.0162
